Experimental findings from PMC4336329 (PLoS ONE, 2015) are described below.

Screen size: about 310,000 compounds; about 2,200 (0.71%) showed an effect of 50% or more. Effects have a minus sign here. The list shows a part of the results.

human ether-à-go-go-related gene (hERG) potassium channel, sequence (Q12809 whole entry, looked up): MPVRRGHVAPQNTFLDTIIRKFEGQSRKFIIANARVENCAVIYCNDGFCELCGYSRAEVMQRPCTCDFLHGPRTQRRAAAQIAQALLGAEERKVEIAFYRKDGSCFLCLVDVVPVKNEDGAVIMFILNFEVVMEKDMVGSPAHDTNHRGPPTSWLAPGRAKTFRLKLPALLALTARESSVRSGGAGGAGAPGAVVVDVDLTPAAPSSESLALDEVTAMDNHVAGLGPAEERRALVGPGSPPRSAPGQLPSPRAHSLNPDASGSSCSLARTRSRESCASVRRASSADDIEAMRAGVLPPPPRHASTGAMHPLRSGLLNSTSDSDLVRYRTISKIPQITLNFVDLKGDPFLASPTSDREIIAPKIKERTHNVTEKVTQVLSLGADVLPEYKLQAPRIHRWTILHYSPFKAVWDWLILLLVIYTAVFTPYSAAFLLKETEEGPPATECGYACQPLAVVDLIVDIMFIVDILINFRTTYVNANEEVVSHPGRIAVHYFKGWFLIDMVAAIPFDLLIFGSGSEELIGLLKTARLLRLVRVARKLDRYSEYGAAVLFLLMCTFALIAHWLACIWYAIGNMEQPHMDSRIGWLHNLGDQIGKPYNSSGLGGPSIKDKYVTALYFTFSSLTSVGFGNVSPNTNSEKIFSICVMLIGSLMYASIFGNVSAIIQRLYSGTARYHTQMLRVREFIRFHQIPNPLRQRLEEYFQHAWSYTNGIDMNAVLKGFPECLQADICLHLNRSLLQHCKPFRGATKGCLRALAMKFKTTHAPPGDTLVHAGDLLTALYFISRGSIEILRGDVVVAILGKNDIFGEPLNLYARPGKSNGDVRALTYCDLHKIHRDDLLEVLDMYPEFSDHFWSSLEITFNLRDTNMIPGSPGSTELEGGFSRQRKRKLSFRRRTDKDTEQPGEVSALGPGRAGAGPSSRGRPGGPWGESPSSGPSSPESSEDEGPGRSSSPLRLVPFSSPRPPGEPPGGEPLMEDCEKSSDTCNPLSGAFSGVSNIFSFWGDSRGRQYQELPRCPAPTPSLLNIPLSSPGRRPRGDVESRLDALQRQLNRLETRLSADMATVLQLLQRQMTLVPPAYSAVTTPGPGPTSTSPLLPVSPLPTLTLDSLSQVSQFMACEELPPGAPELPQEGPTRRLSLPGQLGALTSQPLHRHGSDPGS

The assay has as its target human ether-à-go-go-related gene (hERG) potassium channel (human, UniProt Q12809). As to the kind of experiment: primary screen, population patch clamp on CHO cells stably expressing hERG.
As for `COc1ccc(-n2c(Cc3cccn3C)nnc2SCC(=O)NCC2CCCO2)cc1` (stereo not shown), the “hERG current change (%, negative = inhibition) at 1uM” value turned out to be 8.84%. For `COc1ccc(Cn2c(O)c(/C=N/NC(=O)c3ccncc3)c(=O)[nH]c2=O)cc1` the value was 14.3%; for `COc1ccc(CN(C)C(=O)Cn2ccc(NC(=O)OCc3ccccc3)nc2=O)cc1OC`, 7.41%; for `COc1cc(/C=C2/NC(=O)NC2=O)cc(Br)c1OCc1cccc(C(=O)O)c1`, 13.3%. On to `N#CCCn1nnc2ccccc21`, for which the “hERG current change (%, negative = inhibition) at 1uM” value came to 11%. To `C=CCn1c(SC(F)F)nc2scc(-c3ccco3)c2c1=O` belongs 15.7%; to `N#C/C(=C(/O)c1ccc(Cl)cc1)c1nc2ccccc2[nH]1`, 10.1%.

`O=C(NCCC1=CCCCC1)c1ccc(Cl)c(S(=O)(=O)Nc2ccccc2)c1`: the “hERG current change (%, negative = inhibition) at 1uM” value came to 14.8%.

As to `Cc1ccccc1NC(=O)Nc1c(C)n(C)n(-c2ccccc2)c1=O`, the “hERG current change (%, negative = inhibition) at 1uM” value is -9.17%.

Turning to `CCOC(=O)c1cc2c(nc1NC(=S)Nc1ccccc1)CC(C)(CC)OC2` (stereo not shown), the “hERG current change (%, negative = inhibition) at 1uM” value was 12.6%.

With `CC(C)(C)c1cccc(Oc2nn[nH]n2)c1`, the “hERG current change (%, negative = inhibition) at 1uM” value is given as 5.23%. For `CC1(C)CC(=O)c2c(oc3cc(O)c(O)cc23)C1` the value was 9.92%; for `CCOC(=O)C1=C(C)N(C)C(=S)NC1c1ccccc1Cl` (stereo not shown), 10.7%. On to `CCOC(=O)CCS(=O)(=O)c1ccc(-c2ccc(S(=O)(=O)CCC(=O)OCC)cc2)cc1`, for which the “hERG current change (%, negative = inhibition) at 1uM” value is -4.99%. To `COc1cccc(CNC(=O)C2CCC(CNc3nc(=S)[nH]c4ccccc34)CC2)c1` (stereo not shown) belongs -4.24%; to `COc1ccc(-n2c(SC3CCOC3=O)nc3ccccc3c2=O)cc1OC` (stereo not shown), 4.4%. To `Cc1cc(OCC(=O)NC2CC(C)(C)NC(C)(C)C2)c(C)cc1Br` belongs -1.02%; to `Cn1c(SCC(=O)Nc2ccc3c(c2)OCCO3)nnc1-c1ccco1`, 10.9%.

In the case of `Cn1c2ccccc2c2nnc(N/N=C/c3ccc(O)cc3)nc21`, the “hERG current change (%, negative = inhibition) at 1uM” value came out at 17.1%. For `O=C(COC(=O)C1CCC1)Nc1ccc(OC(F)F)cc1` the value was 9.3%. To `O=C(COc1ccccc1)NCCS(=O)(=O)N1CCN(c2ccccc2)CC1` belongs 9.21%; to `CCOc1ccc(Nc2ccc(N3C(=O)CCC3=O)cc2[N+](=O)[O-])cc1`, 9.18%; to `Cc1[nH]c2ccc(OC(F)(F)F)cc2c1CCN1C(=O)c2ccc(C(=O)O)cc2C1=O`, 23.8%. For `CCN(CC)S(=O)(=O)c1ccc2oc(C(=O)NCCN3CCOCC3)c(C)c2c1` the value was 9.07%. Regarding `C=CCC1c2cccc(C(=O)O)c2C(=O)N1c1cccc(C)c1` (stereo not shown), the “hERG current change (%, negative = inhibition) at 1uM” value stood at 11.5%. For `COc1ccc2c(c1O)[C@]13CCN(C)[C@H](C2)[C@@H]1CCC(=O)C3` the value was 3.05%; for `CSc1ccc(-c2cccc([N+](=O)[O-])c2)nn1`, 8.09%. For the compound `Cc1ccc(OCCCCn2cnc3ccccc32)c(C)c1.O=C(O)C(=O)O`, the “hERG current change (%, negative = inhibition) at 1uM” value is -5.2%. To `CCN(Cc1ccccc1)S(=O)(=O)c1ccc2c(c1)NC(=O)CS2` belongs -7.74%; to `CCn1c(SCC(=O)N2CCCC2)nnc1-c1ccc(S(=O)(=O)N2CCCCCC2)cc1`, 3.58%. For `COc1ccccc1NC(=O)/C(=C\c1cccnc1)NC(=O)c1ccccc1` the value was -35.7%. To `O=C(N1CCOCC1)N1CCN(C(c2ccccc2)c2ccccc2)CC1` belongs 22.1%; to `Cc1ccc2cc3cc(C(=O)NCCCN4CC(C)CC(C)C4)oc3nc2c1` (stereo not shown), -10.5%. `CC(=O)c1ccc(N2CCN(CC(=O)Nc3ccccc3N3CCOCC3)CC2)cc1`: the “hERG current change (%, negative = inhibition) at 1uM” value came to 23%.

Regarding `O=C(Cc1ccccc1)NCc1cccnc1`, the “hERG current change (%, negative = inhibition) at 1uM” value is 7.27%.

Consider `CCOC(=O)Cn1c(=O)c2c(nc(N3CCOCC3)n2C)n(C)c1=O`, for which the “hERG current change (%, negative = inhibition) at 1uM” value worked out at 3.6%. To `CCn1nnnc1NCc1ccc(SC)cc1` belongs 16.1%; to `O=C(NCCCNC(=O)c1ccc(-c2cc(Cl)ccc2Cl)o1)c1cnccn1`, 7.84%.

Turning to `O=C(Nc1ccc(-c2csc(Nc3ccc(Cl)cc3)n2)cc1)c1cc([N+](=O)[O-])cc(C(F)(F)F)c1`, the “hERG current change (%, negative = inhibition) at 1uM” value was 12.3%. Turning to `Cc1cc([N+](=O)[O-])ccc1NC(=O)c1cc2ccccc2o1`, the “hERG current change (%, negative = inhibition) at 1uM” value is on record as 3.19%. To `Cc1ccc2nc(-c3cccc(Br)c3)cc(C(=O)NC3=NCCS3)c2c1` belongs 17.6%; to `CC(O)CSc1nc2c(c(=O)[nH]c(=O)n2C)n1Cc1ccccc1Cl` (stereo not shown), 6.32%; to `Cc1sc2ncnc(N3CCCCC3)c2c1C`, 1.11%. To `Cc1cccc(NC(=O)NNC(=O)c2cc(-c3ccccc3Cl)nc3ccccc23)c1` belongs 1.95%; to `Cc1cc(C)c(NC(=O)CCN2C(=O)c3ccccc3S2(=O)=O)c(C)c1`, 19.5%; to `O=S(=O)(c1ccccc1)N1CCN(Cc2cccc(Cl)c2)CC1`, 5.84%.

Take `COC(=O)CN(c1ccc(C)cc1)S(=O)(=O)c1c(C)[nH]c(=O)[nH]c1=O`: the “hERG current change (%, negative = inhibition) at 1uM” value was determined as 2.18%. To `Clc1ccc(Cl)c(OCCN2CCCC2)c1` belongs 1.91%; to `Cn1c2ccccc2c2cnn(CC(=O)Nc3cccc(F)c3)c(=O)c21`, 15.1%. To `COCCCNC(=O)CN1C(=O)/C(=C\c2ccc(C)cc2)Sc2ccccc21` belongs 1.96%; to `Cc1ccsc1/C=N/Nc1ncnc2nc[nH]c12`, -2.18%. To `O=C(c1n[nH]c(=O)c2ccccc12)N1CCN(c2ccccc2)CC1` belongs 10.1%; to `N/C(=N\OC(=O)c1ccc(Cl)cc1Cl)c1cccnc1`, 7.99%; to `CCn1cnc2c(Nc3cccc(Cl)c3)nc(C#N)nc21`, 13.1%. In the case of `CCSC1=N/C(=C\c2cccnc2)C(=O)N1c1ccccc1`, the “hERG current change (%, negative = inhibition) at 1uM” value was -4.18%. To `Cc1cc(C)n(C(=O)CNC(=O)c2ccc3c(c2)OCCO3)n1` belongs 5.75%; to `COc1ccc(NS(=O)(=O)c2cc(NC(=O)c3cc(=O)c4ccccc4o3)ccc2OC)cc1`, -4.67%; to `FC(F)Sc1ccc(NC(=S)NC2CCCCC2)cc1`, 6.98%. For `COc1ccc(CCN2CC(C(=O)NCC(=O)Nc3ccc(F)c(F)c3)CC2=O)cc1OC` (stereo not shown), the “hERG current change (%, negative = inhibition) at 1uM” value is listed as 8.2%. To `CCCn1c(=O)c(C(=O)NCc2ccco2)c(O)c2ccccc21` belongs 11.4%; to `CCOc1cc(/C=N/NC(=O)C(N)=O)cc(Br)c1O`, 21.6%; to `C=CCn1c(SCC(=O)Nc2cc(NC(C)=O)ccc2OC)nnc1-c1ccccn1`, 3.51%. To `Cc1ccnc(SCC(=O)NC2CCCCCC2)n1` belongs 9.68%; to `FC(F)(F)c1cc(-c2cccs2)nc2ncnn12`, 4.2%; to `C/C(CC(=O)Nc1ccc(C)c(Cl)c1)=N\NC(=O)Cc1ccccc1`, 3.51%. Consider `CCc1c(C(=O)NNC(=S)NC2CCCCC2)csc1C`, for which the “hERG current change (%, negative = inhibition) at 1uM” value is listed as 17.4%.

For `Cc1ccc(N(CCO)C(=S)Nc2ccccc2)cc1`, the “hERG current change (%, negative = inhibition) at 1uM” value was found to be 17.1%. For `Cc1ccc(CCNC(=O)c2cccc(N3CCCC3=O)c2)cc1` the value was 16.4%; for `NNC(=O)c1sc2nc(N3CCOCC3)c3c(c2c1N)CCCC3`, 13.7%. For `O=C(NCC1CCCO1)C(=O)N/N=C/c1cc(Cl)ccc1O` (stereo not shown) the value was 13.1%; for `CC(CCc1ccccc1)NC(=O)c1ccccc1F` (stereo not shown), 8.27%. `Cc1cc(C(=O)N/N=C/c2c(C)[nH]n(-c3ccccc3)c2=O)n[nH]1`: the “hERG current change (%, negative = inhibition) at 1uM” value amounted to 8.92%. To `CC(C)N1CCC(N2CCN(Cc3cc4c(cc3Cl)OCO4)CC2CCO)CC1` (stereo not shown) belongs 6.85%; to `O=C(COC(=O)C1CC(=O)N(Cc2ccco2)C1)c1ccc(OC(=O)c2ccco2)cc1` (stereo not shown), 3.45%; to `CCN(CC(=O)NCc1cccs1)C(=O)CCCOc1ccccc1`, 0.608%. To `O=C(Nc1ccc(F)cc1)Nc1ccc2c(c1)OCO2` belongs 9.16%; to `N#CCCN1CCN(S(=O)(=O)c2cc(Cl)ccc2Cl)CC1`, 4.7%. To `Cc1nc2ccc(S(=O)(=O)NCC(=O)N3CCCCC3)cc2s1` belongs 3.05%; to `Nc1nc(SCC(=O)NCC2CCCO2)n[nH]1` (stereo not shown), -0.836%. For `CCOc1ccc(NC(=O)NCc2ccccn2)cc1`, the “hERG current change (%, negative = inhibition) at 1uM” value was 9.72%. To `C=CCOc1ccc2cccc(/C=N/NC(=O)c3cc4cc([N+](=O)[O-])ccc4s3)c2c1` belongs 19.3%; to `COC(=O)/C(C#N)=C/c1c(Oc2cc(C)cc(C)c2)nc2c(C)cccn2c1=O`, -0.0649%. For `CN(C)C(=O)c1ccc(Cl)cc1[N+](=O)[O-]` the value was 15.2%; for `CN(CC(=O)Nc1c(Cl)cccc1Cl)C(=O)C1CC(=O)N(Cc2ccccc2)C1` (stereo not shown), 16.2%; for `CCC(=O)Nc1ccc(NC(=O)CN2CCCC(C)C2)c(Cl)c1` (stereo not shown), -1.66%. For `CCOC(=O)c1ccc(NC(=O)C2CCC(CNc3c(N4CCOCC4)c(=O)c3=O)CC2)cc1` (stereo not shown) the value was 11.6%. As for `COc1ccc(-n2c(N)c(C(=O)NCc3ccco3)sc2=S)cc1`, the “hERG current change (%, negative = inhibition) at 1uM” value is given as 2.96%. As for `O=c1c2c(nc3nc(Cc4ccccc4)[nH]n13)CCC2`, the “hERG current change (%, negative = inhibition) at 1uM” value was found to be 7.88%. To `COC(=O)c1ccc(NS(=O)(=O)c2ccc(Cl)cc2)o1` belongs 7.1%; to `Cc1cccc(-n2ccnc2SCC(=O)Nc2nccs2)c1`, 2.78%. To `Cc1ccnc(NC(=O)CCC(=O)N(CC(=O)NCc2ccccc2)c2ccc3c(c2)OCO3)c1` belongs 2.08%.
